Assay results as given in PubChem BioAssay AID504333 (National Center for Advancing Translational Sciences (NCATS), 2011).
The campaign covered roughly 360,000 compounds. About 16,000 (4.4%) were called active. Inconclusive means that the source gave no clear call. Such entries were picked first, then a sample of the others. Calls come from the whole dose curve; as a rule, active = well fitted inhibition curve with a large enough effect; inconclusive = small, poorly fitted or top-dose-only effect; inactive = no such curve, though single readings can be large or run the other way. Potencies beside an inconclusive call are fits to weak or partial responses and may not hold up.
Note: nearly all actives have a fitted effect of over 60% in size.
Potency is the fitted concentration of half-maximal effect; tags give direction and shape of the fitted curve.

What follows are molecules tested against Bromodomain adjacent to zinc finger domain protein 2B (Homo sapiens) (UniProt Q9UIF8) (assay: qHTS Assay for Inhibitors of BAZ2B). Details: AlphaScreen BAZ2B-H3K14Ac peptide displacement; series mostly up to 114 µM.
Chain of UniProt Q9UIF8 (Q9UIF8 whole entry, looked up, the tested form may be a part): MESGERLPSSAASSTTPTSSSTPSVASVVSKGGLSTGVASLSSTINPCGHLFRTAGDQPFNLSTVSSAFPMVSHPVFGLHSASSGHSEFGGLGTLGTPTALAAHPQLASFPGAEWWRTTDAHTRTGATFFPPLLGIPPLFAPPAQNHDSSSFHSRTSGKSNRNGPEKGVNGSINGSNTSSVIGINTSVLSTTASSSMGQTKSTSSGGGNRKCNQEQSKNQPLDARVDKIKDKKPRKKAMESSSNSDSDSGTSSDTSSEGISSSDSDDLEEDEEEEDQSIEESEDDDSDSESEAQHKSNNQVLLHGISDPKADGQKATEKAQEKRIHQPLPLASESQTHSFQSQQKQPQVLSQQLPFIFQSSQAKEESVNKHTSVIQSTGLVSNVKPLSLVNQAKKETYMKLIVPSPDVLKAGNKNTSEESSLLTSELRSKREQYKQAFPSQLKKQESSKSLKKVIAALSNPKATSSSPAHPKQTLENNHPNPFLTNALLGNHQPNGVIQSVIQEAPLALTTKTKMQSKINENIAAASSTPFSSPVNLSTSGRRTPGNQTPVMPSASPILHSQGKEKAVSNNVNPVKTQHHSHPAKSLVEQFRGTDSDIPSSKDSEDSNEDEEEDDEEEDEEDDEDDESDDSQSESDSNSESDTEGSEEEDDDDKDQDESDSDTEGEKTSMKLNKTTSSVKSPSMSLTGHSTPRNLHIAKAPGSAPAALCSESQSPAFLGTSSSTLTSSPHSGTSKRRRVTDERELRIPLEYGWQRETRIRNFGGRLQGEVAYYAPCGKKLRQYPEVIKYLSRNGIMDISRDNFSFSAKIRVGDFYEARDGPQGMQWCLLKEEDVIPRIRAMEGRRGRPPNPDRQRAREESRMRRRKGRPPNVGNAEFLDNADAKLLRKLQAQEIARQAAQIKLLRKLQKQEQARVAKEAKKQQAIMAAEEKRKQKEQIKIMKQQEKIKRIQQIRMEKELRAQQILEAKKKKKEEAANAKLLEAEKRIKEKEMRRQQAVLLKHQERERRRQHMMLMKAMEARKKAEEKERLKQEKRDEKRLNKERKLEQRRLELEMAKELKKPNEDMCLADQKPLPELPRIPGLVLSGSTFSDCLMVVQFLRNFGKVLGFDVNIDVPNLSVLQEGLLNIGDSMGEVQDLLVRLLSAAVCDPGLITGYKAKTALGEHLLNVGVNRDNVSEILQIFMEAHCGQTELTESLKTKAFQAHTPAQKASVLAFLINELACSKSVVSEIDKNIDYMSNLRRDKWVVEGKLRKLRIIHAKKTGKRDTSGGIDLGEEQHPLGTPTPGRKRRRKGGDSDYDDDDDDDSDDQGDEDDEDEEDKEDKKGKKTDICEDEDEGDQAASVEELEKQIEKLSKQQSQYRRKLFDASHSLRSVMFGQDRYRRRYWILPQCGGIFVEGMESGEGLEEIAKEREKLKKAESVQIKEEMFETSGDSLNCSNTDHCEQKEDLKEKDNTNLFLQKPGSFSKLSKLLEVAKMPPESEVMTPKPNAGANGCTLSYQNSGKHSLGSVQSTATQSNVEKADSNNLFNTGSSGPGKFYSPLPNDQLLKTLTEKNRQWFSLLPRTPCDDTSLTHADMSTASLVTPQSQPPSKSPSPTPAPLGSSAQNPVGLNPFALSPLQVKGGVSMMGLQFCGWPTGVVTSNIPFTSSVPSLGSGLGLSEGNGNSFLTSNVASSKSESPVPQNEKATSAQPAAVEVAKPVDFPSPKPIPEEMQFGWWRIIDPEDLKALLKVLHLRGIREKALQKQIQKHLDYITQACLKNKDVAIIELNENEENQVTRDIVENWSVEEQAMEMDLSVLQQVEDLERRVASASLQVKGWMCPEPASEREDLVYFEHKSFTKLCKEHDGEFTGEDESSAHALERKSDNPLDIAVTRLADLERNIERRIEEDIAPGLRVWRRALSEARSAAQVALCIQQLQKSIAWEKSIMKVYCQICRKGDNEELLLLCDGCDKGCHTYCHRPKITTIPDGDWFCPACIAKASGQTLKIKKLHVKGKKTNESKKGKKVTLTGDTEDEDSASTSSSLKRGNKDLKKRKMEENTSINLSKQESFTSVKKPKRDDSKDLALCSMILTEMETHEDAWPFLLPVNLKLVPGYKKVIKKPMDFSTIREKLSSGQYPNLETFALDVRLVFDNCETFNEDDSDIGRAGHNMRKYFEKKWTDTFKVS
Method in brief: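 BAZ2B 50 nM plus b-H3(5-23)K14Ac 50 nM, PBS pH 7.4/0.01% Tween-20, 30 min RT; compound added (max 110 uM), 30 min RT; streptavidin donor/Ni-chelate acceptor beads 10 ug/mL final, 20 min dark; AlphaScreen read.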
For `CCn1c(O)c(/C=N/NC(=O)c2ccccc2)c(=O)n(CC)c1=S`, the Potency was inconclusive: 89.1 µM [inhibitor, single point]. `C=CCn1c(O)c(/C(C)=N/NC(=S)Nc2ccccc2)c(=O)[nH]c1=O` was tested, and the Potency was “inactive”. `COc1ccc(OCC#CCN2CCC(C)CC2)cc1` was tested, and the Potency was active: 28.2 µM. `NC(Cc1cc(O)c(O)cc1O)C(=O)O` (configuration not stated) was tested, and the Potency was active: 0.891 µM. With `CCCCC(=O)N/N=C/c1c(O)n(C2CC2)c(=S)[nH]c1=O` the Potency was inconclusive: 89.1 µM [inhibitor, single point]. `CCN1CCN(Cc2cc(OC)c3c(c2)OCO3)CC1` was tested, and the Potency was inconclusive: 89.1 µM [inhibitor, single point]. In the case of `CC1(C)OC(c2ccccc2)=C/C(=C/C=C2C(=O)NC(=S)NC2=O)O1`, the Potency was active: 10 µM. With `COc1ccc(CC(=O)N(CCN(C)C)CC2CCCN(Cc3ccccc3F)C2)cc1` (configuration not stated) the Potency was “inactive”. `Cc1ccc2c(c1)CC1(CN2C)C(=O)NC(=O)N(CCC2=CCCCC2)C1=O` (configuration not stated) was tested, and the Potency was “inactive”. With `CC(Cc1ccccc1)[n+]1cc(/N=C(\[O-])N(C)C)on1` (configuration not stated) the Potency was inconclusive: 89.1 µM [inhibitor, single point]. `COc1ccc(N2C(=O)/C(=C/c3ccc(C)o3)C(=O)NC2=S)cc1` was tested, and the Potency was active: 44.7 µM. For `Cc1cc(/C=C2\C(=O)NC(=O)N(c3ccc(F)cc3)C2=O)c(C)n1-c1ccc(C(=O)O)cc1`, the Potency was inconclusive: 56.2 µM [inhibitor, partial curve]. In the case of `COc1cccc(N2C(=O)NC(=O)/C(=C/c3ccc4c5c(cccc35)CC4)C2=O)c1`, the Potency was active: 50.1 µM. In the case of `Cc1cc(/C=C2\C(=O)NC(=O)N(Cc3ccco3)C2=O)c(C)n1-c1ccc(O)cc1`, the Potency was inconclusive: 50.1 µM [inhibitor, partial curve, poor fit]. In the case of `CCN(CC)c1ccc(CNCCc2ccccc2F)cc1`, the Potency was inconclusive: 44.7 µM [inhibitor, partial curve]. With `CCOP(=O)(OCC)c1nc(-c2ccc(F)cc2)oc1NCc1ccccc1` the Potency was inconclusive: 70.8 µM [inhibitor, partial curve]. In the case of `c1csc(-c2nnc(COc3ccc4c(c3)OCO4)o2)c1`, the Potency was inconclusive: 44.7 µM [inhibitor, partial curve]. `CCn1cc(C(=O)O)c(=O)c2ccc(C)nc21` was tested, and the Potency was active: 79.4 µM. For `O=c1[nH]c(=S)n(-c2ccc(F)cc2)c(O)c1/C=N/N1CCOCC1`, the Potency was inconclusive: 89.1 µM [inhibitor, single point]. `O=C1NC(=O)C(=Cc2cn(CCOc3ccc4c(c3)OCO4)c3ccccc23)C(=O)N1` was tested, and the Potency was “inactive”. `Cc1ccc(-c2nc(N3CCOCC3)s[n+]2-c2ccccc2)cc1` was tested, and the Potency was inconclusive: 89.1 µM [inhibitor, single point]. For `COc1ccc(NC(=O)CCc2nc(C3=CCN(Cc4cccc(Cl)c4)CC3)no2)c(OC)c1`, the Potency was inconclusive: 35.5 µM [inhibitor, full curve, poor fit]. For `C[n+]1c2ccccc2nc2ccc(NCCO)cc21`, the Potency was active: 12.6 µM. In the case of `c1ccc(CNCCc2c[nH]c3ccccc23)cc1`, the Potency was inconclusive: 79.4 µM [inhibitor, single point]. For `CC1CN=C(Nc2ccc(N(C)C)cc2)S1` (configuration not stated), the Potency was inconclusive: 39.8 µM [inhibitor, full curve]. With `COc1ccc(N2C(=O)NC(=O)/C(=C/c3ccc([N+](=O)[O-])s3)C2=O)cc1` the Potency was active: 39.8 µM. For `Fc1ccc(C2N3CCCN23)cc1` (configuration not stated), the Potency was inconclusive: 100 µM [inhibitor, partial curve]. `CNC(C(=O)c1ccccc1)C(OC(C)C)c1ccc(Cl)cc1` (configuration not stated) was tested, and the Potency was “inactive”. `O=C(O)CC1OCC=C2CN3CCC45C6=CC(=O)C(=O)C([N+](=O)[O-])=C6NC4C1C2CC35` (configuration not stated) was tested, and the Potency was inconclusive: 89.1 µM [inhibitor, single point]. With `COc1ccc(-n2c(-c3ccccc3[N+](=O)[O-])nc3ccccc3c2=O)cc1` the Potency was inconclusive: 70.8 µM [inhibitor, single point]. In the case of `Cc1ccccc1N1C(=O)NC(=O)/C(=C\c2ccc3c(c2)CCCN3Cc2ccccc2)C1=O`, the Potency was active: 35.5 µM. For `O=c1c2ccccc2nc(/C=C/c2cccnc2)n1Cc1ccccc1`, the Potency was active: 10 µM. With `Cc1cccc(C)c1OCc1n[nH]c(=S)n1N` the Potency was inconclusive: 79.4 µM [inhibitor, single point]. In the case of `CCCCC12CN3CC(C)(CN(C1)C3c1ccccn1)C2=O` (configuration not stated), the Potency was active: 8.91 µM. With `Cc1cccc(N2CCN(C(=O)c3ccc(CNc4c(N5CCC(C)CC5)c(=O)c4=O)cc3)CC2)c1C` the Potency was inconclusive: 22.4 µM [inhibitor, full curve]. With `O=C1NC(=S)NC(=O)C1=Cc1ccc2c(c1)CCN2CCCCl` the Potency was active: 25.1 µM. In the case of `COc1ccccc1CN1CCN(C(=O)Cc2ccccc2)CC1`, the Potency was active: 50.1 µM. `O=c1oc(Cl)c(Cl)c2ccccc12` was tested, and the Potency was inconclusive: 89.1 µM [inhibitor, single point]. For `CSc1nnc([C@@H](N)Cc2ccccc2)o1`, the Potency was inconclusive: 89.1 µM [inhibitor, single point]. In the case of `O=c1c2ccccc2nc(-c2ccco2)n1-c1ccc(Br)cc1`, the Potency was “inactive”. `c1ccc2c(CN3CCN(C4CCCCC4)CC3)c[nH]c2c1` was tested, and the Potency was active: 50.1 µM. With `COc1cc(/C=C2\C(=O)NC(=O)N(c3ccccc3)C2=O)cc(OC)c1O` the Potency was inconclusive: 89.1 µM [inhibitor, single point]. For `CCOc1cc(/C=C2/C(=O)NC(=O)N(c3ccc(CC)cc3)C2=O)ccc1OC(=O)c1cccs1`, the Potency was active: 50.1 µM. With `NC1=C(Br)C(=O)c2ccccc2C1=O` the Potency was inconclusive: 56.2 µM [inhibitor, partial curve]. With `Cc1cc(=O)[nH]c(CCl)n1` the Potency was inconclusive: 89.1 µM [inhibitor, single point]. For `COc1ccc(NC(=S)NC(NC(=O)CF)C(Cl)(Cl)Cl)c([N+](=O)[O-])c1` (configuration not stated), the Potency was inconclusive: 50.1 µM [inhibitor, partial curve]. `Cc1ccc(OCCOc2cccc(C=C3C(=O)NC(=O)NC3=O)c2)c(C)c1` was tested, and the Potency was inconclusive: 89.1 µM [inhibitor, single point].
